Article PMC4336329 (PLoS ONE, 2015)
Hit rate of the full screen: of about 310,000 compounds, about 2,200 (0.71%) showed an effect of 50% or more. The effect is printed as a negative number. The list shows a part of the results.

target: human ether-à-go-go-related gene (hERG) potassium channel (human, UniProt Q12809); experiment: primary screen, population patch clamp on CHO cells stably expressing hERG
Sequence (Q12809 whole entry, looked up): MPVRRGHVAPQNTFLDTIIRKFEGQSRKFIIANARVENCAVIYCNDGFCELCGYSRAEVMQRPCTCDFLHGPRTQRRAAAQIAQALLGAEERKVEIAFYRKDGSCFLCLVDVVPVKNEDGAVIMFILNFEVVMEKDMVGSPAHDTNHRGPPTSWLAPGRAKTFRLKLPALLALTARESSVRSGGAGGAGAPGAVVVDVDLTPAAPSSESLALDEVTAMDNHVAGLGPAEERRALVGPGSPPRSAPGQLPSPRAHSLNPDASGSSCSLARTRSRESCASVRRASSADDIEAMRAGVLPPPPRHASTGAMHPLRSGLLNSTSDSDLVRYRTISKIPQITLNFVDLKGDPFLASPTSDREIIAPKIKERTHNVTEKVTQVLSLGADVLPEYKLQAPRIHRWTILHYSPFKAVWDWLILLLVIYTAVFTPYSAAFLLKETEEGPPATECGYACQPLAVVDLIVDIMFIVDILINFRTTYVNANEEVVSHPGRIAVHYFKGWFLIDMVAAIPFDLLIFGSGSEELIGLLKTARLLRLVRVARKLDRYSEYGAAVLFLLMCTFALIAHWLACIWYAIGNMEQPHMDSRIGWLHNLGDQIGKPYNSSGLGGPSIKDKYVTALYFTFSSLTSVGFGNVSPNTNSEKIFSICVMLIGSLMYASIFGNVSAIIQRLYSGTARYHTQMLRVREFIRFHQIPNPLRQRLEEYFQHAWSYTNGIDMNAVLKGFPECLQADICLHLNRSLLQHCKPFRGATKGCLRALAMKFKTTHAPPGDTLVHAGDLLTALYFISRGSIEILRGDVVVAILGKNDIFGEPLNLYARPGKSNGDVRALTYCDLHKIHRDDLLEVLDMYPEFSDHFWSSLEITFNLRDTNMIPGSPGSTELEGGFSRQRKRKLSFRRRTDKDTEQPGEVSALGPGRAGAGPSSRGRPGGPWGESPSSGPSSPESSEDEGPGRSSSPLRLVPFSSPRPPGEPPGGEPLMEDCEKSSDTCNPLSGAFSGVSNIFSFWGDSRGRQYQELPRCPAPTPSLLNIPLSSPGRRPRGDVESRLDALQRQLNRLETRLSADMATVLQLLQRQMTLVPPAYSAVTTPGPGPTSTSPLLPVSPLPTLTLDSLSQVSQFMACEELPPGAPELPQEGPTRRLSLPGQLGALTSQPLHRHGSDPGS

SMILES	hERG current change (%, negative = inhibition) at 1uM
COc1ccc(-c2ccc(-c3noc(-c4cccc(OC)c4)n3)c(OC)n2)cc1	19.7%
CCN(Cc1ccccc1)C(=O)Cn1cc(S(=O)(=O)NC)c(S(=O)(=O)NC)c1	14.4%
O=C(Nc1ccc(Cl)cc1)c1ccc(Br)cc1F	16%
Cc1ccc(CNC(=O)CCCC(=O)O)cc1	4.97%
CC(=O)Nc1ccc(S(=O)(=O)N2CCN(C(C)CCc3ccccc3)CC2)cc1 (stereo not drawn)	-5.65%
CCOc1c2ccc(C(=O)NCc3ccc4c(c3)OCO4)cc2nn1CCOC	5.72%
COc1ccccc1C(=O)NC1CCN(C(=O)Nc2ccc(C)cc2)CC1	10.5%
CC1CCN(CCOc2ccc(Cl)c(Cl)c2)CC1	-15.5%
CC(C)n1c(NCc2ccc(Cl)cc2)nc2ccccc21	7.69%
CCC(C)NC(=O)C1c2ccccc2C(=O)N1Cc1ccccc1 (stereo not drawn)	14.5%
CC1(c2nnc(Cc3ccccc3)o2)CC(c2cccc(F)c2)=NO1 (stereo not drawn)	5.1%
COc1cccc(N/C(SCc2cccc([N+](=O)[O-])c2)=C(/C#N)C(=O)NCc2cccs2)c1	7.73%
Cc1ccc(NC2CC(=O)N(c3ccc(C)cc3)C2=O)cc1 (stereo not drawn)	5.32%
CC1CCC2(CC1)NC(=O)N(CC(=O)NC1(C#N)CCCCC1)C2=O (stereo not drawn)	14.6%
CCCc1noc2c1C(c1ccoc1)C(C#N)=C(N)N2 (stereo not drawn)	5.56%
CCCOC1CCCN(Cc2cn(C)nc2-c2ccccc2F)C1 (stereo not drawn)	13.2%
COc1ccc(N2CC(O)(c3ccc(C)cc3)[N+]3=C2CCCC3)cc1.[Br-] (stereo not drawn)	3.52%
O=C1NC(=O)C(CCc2ccncc2)(Cc2ccc([N+](=O)[O-])cc2)C(=O)N1	15%
Nc1nc(-c2ccccc2)nn1S(=O)(=O)c1ccccc1	7.67%
S=c1[nH]nc(CSCCOc2ccccc2)o1	8.97%
O=C(COc1ccccc1)Nc1ccc(CSc2ccccc2)cc1	12.7%
O=C(NC(C(=O)N/N=C/c1ccncc1)c1n[nH]c(=O)c2ccccc12)c1ccccc1 (stereo not drawn)	9.33%
COc1ccc(S(=O)(=O)c2nnn(-c3cccc(OC)c3)c2N)cc1	6.81%

SMILES	hERG current change (%, negative = inhibition) at 1uM
Cc1cc(=O)cc(C)n1-c1ccc(Cl)c(Cl)c1	11.1%
O=C(COC(=O)CCOc1ccccc1)Nc1ncc(Cl)cc1Cl	7.19%
O=C1N=C(N2CCCC2)S/C1=C\C=C\c1ccccc1	-0.905%
Cc1ccc(S(=O)(=O)n2cnc3cc([N+](=O)[O-])ccc32)c(C)c1	-12.3%
Cc1ccc(CN2CCN(CC3CC4C=CC3C4)CC2)cc1 (stereo not drawn)	-22.4%
O=C(COC(=O)c1cncc(Br)c1)NCc1ccco1	5.14%
COc1ccc(OCC(=O)NCc2n[nH]c(=O)c3ccccc23)cc1	-1.83%
Cc1cc(C)cc(N2CN=c3s/c(=C\c4ccco4)c(=O)n3C2)c1	7.62%
CC(=O)NNc1nc(-c2ccccc2)c2cc(Br)ccc2n1	17.6%
COc1cccc(CC(=O)Nc2ncc(C)s2)c1	12%
CC(=O)NC(CCS(C)(=O)=O)C(=O)Nc1ccc(Oc2ccccc2)cc1 (stereo not drawn)	12%
O=C(NCc1cc([N+](=O)[O-])ccc1O)c1cccc(NS(=O)(=O)c2ccccc2)c1	18.5%
Cc1ccc(OCCNC(=O)c2ccccc2F)cc1	5.76%
Cc1cccc(-c2ncc(CN3CCN(CC(C)C)C(CCO)C3)cn2)c1 (stereo not drawn)	-19.3%
CCC(=O)Nc1ccc2c(c1)nc(CCN1CCN(C)CC1)n2C	20.6%
Cc1ccccc1CN1C[C@@H]2C[C@@H](c3cn(C)nc3-c3ccccc3)N3CCC[C@@]23C1=O	16.8%
O=C(c1ccccc1F)N1CCN(CC2CC3C=CC2C3)CC1 (stereo not drawn)	-13%
CCN1CCN(Cc2ccc(OCc3ccccc3)cc2)CC1	6.55%
Cc1ccc(S(=O)(=O)N2CCOCC2)cc1NC(=O)COC(=O)c1cc(=O)[nH]c2ccccc12	1.29%
Cc1cc(C)c(-c2csc(NC(=O)C3=COCCO3)n2)cc1C	20.9%
CC1=C(C(=O)O)N2C(=O)[C@@H](NC(=O)CCCC(=O)O)[C@H]2SC1	10.1%
Cc1cc(Cl)ccc1Nc1ncccc1C(N)=O	11.9%
Cc1ccc(-c2nn(-c3ccccc3)cc2/C=C/C(=O)OCC(=O)NC2CC2)o1	7.49%

SMILES	hERG current change (%, negative = inhibition) at 1uM
N#Cc1ccncc1S(=O)c1ccc(Cl)cc1 (stereo not drawn)	13%
CCOC(=O)N1CCC(NC(=O)CCN2C(=O)C3C4C=CC(C4)C3C2=O)CC1 (stereo not drawn)	5.49%
[O-]/[N+](=C/c1cccnc1)c1ccc(Br)cc1	9.2%
O=C(Cc1ccccc1)NCC(=O)N1CCCCC1	19.6%
CCOCC(=O)Nc1ccc([N+](=O)[O-])cc1Cl	14.3%
CN(C)CCNc1oc(COc2ccc(-c3ccccc3)cc2)nc1C#N	2.52%
COC(=O)c1ccc(C(=O)N2CCCC(CNC(=O)c3ccc(F)cc3)C2)cc1 (stereo not drawn)	8.52%
Cc1ccccc1NC(=O)NCCCN1CCN(C)CC1	14.9%
COc1ccc(C2C3=C(CC(C)(C)CC3=O)Oc3ncn4nc(-c5cccnc5)nc4c32)cc1 (stereo not drawn)	-4.23%
C=CCn1c(OCc2ccccc2)n[nH]c1=S	15.9%
Cc1cc(/C=C(/C#N)c2cccc(F)c2)c(C)n1-c1cccnc1	8.11%
Cc1cccc(-c2cccc(NC(=O)C3CCCN(C(=O)c4cccnc4)C3)c2)c1 (stereo not drawn)	-6.49%
C=CCNCCOc1ccc(C)cc1[N+](=O)[O-].O=C(O)C(=O)O	-5.64%
COc1cccc(CNC(=O)c2nnn(CC(=O)Nc3ccc(Br)cc3)c2N)c1	17%
COc1ccc(CCNC(=O)C2CCC(=O)N2S(=O)(=O)c2ccc(C)cc2)cc1 (stereo not drawn)	15.8%
CCOC(=O)C1CCN(C(=O)c2cc3ccccc3oc2=O)CC1	9.75%
CC(C)n1c(SCC(=O)Nc2nc3ccccc3s2)nc2c1c(=O)n(C)c(=O)n2C	17.3%
Cc1ccccc1OCC(=O)NCCCNC(=O)c1cccnc1	8.36%
CCC1(C)Cc2ccccc2-c2nc(NN)[nH]c(=O)c21 (stereo not drawn)	8.94%
COc1cc(/C=C/C(=O)OCC(=O)NC(=O)NC(C)C)ccc1O	8.68%
CCOC(=O)c1c(NC2=NS(=O)(=O)c3ccccc32)sc2c1CCC(C)C2 (stereo not drawn)	17.9%
CCc1ccc(NC(=O)C(=O)N/N=C(\C)CC(=O)Nc2ccc(OC)cc2)cc1	8.29%
Cc1cccc(/C=N\NC(=O)c2ccc(Cl)cc2)c1O	25.8%

SMILES	hERG current change (%, negative = inhibition) at 1uM
O=C(Cn1cnc2sc3c(c2c1=O)CCCC3)NCCCC(=O)N1CCC2(CC1)OCCO2	-4.84%
CN(CC(=O)Nc1cccc2c1CCCC2)S(=O)(=O)c1ccc(Cl)cc1	-0.147%
O=C(CSc1nc2ccccc2c(=O)[nH]1)N1CCOCC1	6.99%
CN1CCN(c2ccc(NC(=O)c3ccc4c(c3)OCO4)cc2)CC1	-0.282%
CC(C)COC(=O)Nc1ccc(C(=O)O)cc1	8.12%
CCN(CC)S(=O)(=O)c1ccc(C(=O)Nc2ccc(C(F)(F)F)n(C)c2=O)cc1	15%
COc1ccc(NS(=O)(=O)c2cc(NC(=O)c3cccs3)ccc2N2CCCC2)cc1	1.54%
Cc1ccc(NC(=O)C(NC2CCCC2)c2ccccc2)cc1Cl (stereo not drawn)	14.6%
Cc1ccccc1C(=O)N1CCC(C(=O)OCc2nc(N)nc(Nc3ccccc3)n2)CC1	-6.96%
Cc1ccc(Cn2ccc(-c3cnc(-c4ccccc4)s3)n2)cc1	16.4%
O=[N+]([O-])c1nn(-c2ccc3c(c2)OCCO3)n(O)c1=NCc1ccc(F)cc1	10.7%
O=C(O)c1ccc(NS(=O)(=O)/C=C/c2ccccc2)cc1	11.9%
CCc1ccc2[nH]c3nc(SCc4nnc(-c5ccc(C)cc5)o4)nnc3c2c1	12.7%
O=C(COC(=O)c1cncc(Br)c1)Nc1nc(-c2ccc(F)cc2)cs1	7.12%
CC1=C(C#N)C(C(F)(F)F)(C(F)(F)F)N=C(c2ccco2)N1	9.8%
COc1ccc(-c2nc(-c3ccccc3)nc(Cl)c2C#N)cc1	5.24%
CC1(C)CC(=O)C2=C(C1)Oc1ncn(Cc3ccco3)c(=N)c1C2c1ccccc1 (stereo not drawn)	-2.87%
CC1=CC(=O)C2=C(C)C[C@H](O)[C@@H]3[C@H](OC(=O)[C@H]3C)[C@@H]12.O	14.5%
Nc1ccccc1SCc1cn2ccccc2n1	-13.4%
Cc1ccc(NNC(=O)c2cc(C)on2)c(C)c1	7.41%
CC(=O)Nc1cccc(C(=O)Nc2ccc(S(=O)(=O)NC3=NCCCCC3)cc2)c1	25.3%
